From the supplement of paper PMC7826260
The other results are listed elsewhere or left out. One pool of 16,384 single-stranded DNAs met each Rep nickase domain in vitro (3 µM enzyme, 1 h, 37 °C); shown is the middle of each 90-letter strand. A value is the log2 ratio of uncut reads to the pool without enzyme; uncut sequences lie near 0, cut ones below; no hit call is given. Because reads are shares of a total, they shift together; where an enzyme cuts many sequences, the uncut ones exceed 0.

Key:
Test in all cases: uncleaved DNA left, log2 of reads against the no-enzyme library (log2 ratio); higher = less cleavage (more negative = more Rep cleavage of the k-mer); sequences stand for … in CTCGTCCG…ACCGGAGA
[1] = tested on: T1, Rep nickase domain of Muscovy duck circovirus
T1 sequence (residues 1-111 of Rep, tag left off): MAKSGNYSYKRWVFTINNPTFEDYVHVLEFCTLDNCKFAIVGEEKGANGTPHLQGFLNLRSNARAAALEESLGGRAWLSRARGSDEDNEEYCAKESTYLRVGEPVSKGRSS
Description: (§1)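 A pool of 90-nt single-stranded DNAs with seven random bases just before the constant AC of the nick site (name = the seven bases) was cut by 3 µM recombinant His6-SUMO-tagged Rep nickase domain (300 nM DNA, 50 mM HEPES pH 8.0, 50 mM NaCl, 1 mM MnCl2, 1 h, 37 °C, three replicates). Uncut DNA was amplified and sequenced.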

[2] = tested on: T2, Rep nickase domain of banana bunchy top virus
T2 sequence (residues 1-94 of Rep, tag left off): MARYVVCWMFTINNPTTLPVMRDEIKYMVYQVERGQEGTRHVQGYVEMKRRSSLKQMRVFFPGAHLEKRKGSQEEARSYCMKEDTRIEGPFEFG
Description: as §1

[3] = tested on: T3, Rep nickase domain of cabbage leaf curl virus
T3 sequence (residues 1-116 of Rep, tag left off): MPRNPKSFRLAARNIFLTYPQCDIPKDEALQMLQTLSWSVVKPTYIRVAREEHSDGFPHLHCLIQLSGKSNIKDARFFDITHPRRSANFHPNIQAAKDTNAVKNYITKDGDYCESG
Description: as §1

[4] = tested on: T4, Rep nickase domain of chickpea chlorotic dwarf virus
T4 sequence (residues 1-124 of Rep, tag left off): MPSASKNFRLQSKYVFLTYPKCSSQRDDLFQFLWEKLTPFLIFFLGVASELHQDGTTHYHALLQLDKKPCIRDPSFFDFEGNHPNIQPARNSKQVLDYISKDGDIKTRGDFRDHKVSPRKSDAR
Description: as §1

[5] = tested on: T5, Rep nickase domain of faba bean necrotic yellows virus
T5 sequence (residues 1-98 of Rep, tag left off): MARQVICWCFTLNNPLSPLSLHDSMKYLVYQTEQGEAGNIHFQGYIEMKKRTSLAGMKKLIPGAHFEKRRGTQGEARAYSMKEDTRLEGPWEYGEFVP
Description: as §1

[6] = tested on: T6, Rep nickase domain of maize striate mosaic virus
T6 sequence (residues 1-117 of Rep, tag left off): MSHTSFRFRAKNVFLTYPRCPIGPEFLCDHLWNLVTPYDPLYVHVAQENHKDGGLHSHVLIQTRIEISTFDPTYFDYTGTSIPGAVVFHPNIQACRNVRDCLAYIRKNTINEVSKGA
Description: as §1

[7] = tested on: T7, Rep nickase domain of porcine circovirus 2
T7 sequence (residues 2-116 of Rep, tag left off): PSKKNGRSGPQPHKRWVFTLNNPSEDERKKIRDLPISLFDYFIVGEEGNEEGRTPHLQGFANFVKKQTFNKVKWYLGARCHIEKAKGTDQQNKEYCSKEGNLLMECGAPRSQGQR
Description: as §1

[8] = tested on: T8, Rep nickase domain of tomato golden mosaic virus
T8 sequence (residues 1-124 of Rep, tag left off): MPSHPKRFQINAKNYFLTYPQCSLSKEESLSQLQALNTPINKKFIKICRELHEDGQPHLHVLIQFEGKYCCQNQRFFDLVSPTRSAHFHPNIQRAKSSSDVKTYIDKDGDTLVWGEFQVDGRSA
Description: as §1

[9] = tested on: T9, Rep nickase domain of tomato yellow leaf curl virus
T9 sequence (residues 1-136 of Rep, tag left off): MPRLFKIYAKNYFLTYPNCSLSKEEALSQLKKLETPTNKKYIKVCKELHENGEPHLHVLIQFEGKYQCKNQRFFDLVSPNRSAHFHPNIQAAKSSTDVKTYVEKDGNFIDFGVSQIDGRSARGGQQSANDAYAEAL
Description: as §1

[10] = tested on: T10, Rep nickase domain of wheat dwarf virus
T10 sequence (residues 1-137 of Rep, tag left off): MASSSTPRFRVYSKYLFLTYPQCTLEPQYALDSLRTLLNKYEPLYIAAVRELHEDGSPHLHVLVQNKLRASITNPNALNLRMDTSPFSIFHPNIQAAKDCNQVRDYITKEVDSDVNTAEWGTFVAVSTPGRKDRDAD
Description: as §1

Sequence | uncleaved DNA left (log2) [1] | uncleaved DNA left (log2) [2] | uncleaved DNA left (log2) [3] | uncleaved DNA left (log2) [4] | uncleaved DNA left (log2) [5] | uncleaved DNA left (log2) [6] | uncleaved DNA left (log2) [7] | uncleaved DNA left (log2) [8] | uncleaved DNA left (log2) [9] | uncleaved DNA left (log2) [10]
GCGCGTT | -0.161 | -0.0623 | -0.224 | -0.522 | -0.139 | -0.492 | -0.142 | -0.00653 | -0.0564 | -0.0332
AGCGAGT | 0.125 | 0.153 | 0.00394 | 0.627 | 0.0881 | 1.53 | 0.0465 | 0.123 | 0.125 | 0.157
TGTCTAA | -0.0819 | -0.103 | 0.157 | 0.198 | -0.0755 | 0.485 | 0.0395 | -0.00689 | 0.0869 | 0.0329
TTCTCGT | 0.00385 | -0.0907 | -0.226 | -0.903 | -0.0925 | -0.84 | -0.214 | -0.155 | -0.102 | -0.123
GGTGGAG | 0.0679 | 0.0692 | 0.02 | 0.474 | 0.168 | 0.101 | 0.376 | 0.0453 | 0.149 | 0.168
TGTGGCC | 0.0215 | -0.0572 | 0.209 | 0.615 | -0.0692 | 0.553 | 0.0556 | -0.0675 | -0.0118 | -0.0601
AGGCAGG | 0.181 | 0.0504 | 0.103 | 0.477 | 0.129 | -0.00135 | 0.188 | -0.0587 | -0.0541 | 0.00308
CGATACC | 0.0215 | 0.0701 | 0.143 | 0.269 | -0.000246 | 0.35 | -0.152 | 0.0939 | 0.0277 | -0.00549
ACGTCCA | -0.256 | -0.0464 | -0.254 | -0.961 | -0.15 | -0.544 | -0.318 | -0.0465 | -0.157 | -0.176
TGGTAGA | 0.0276 | 0.00882 | 0.282 | 0.248 | 0.0836 | -0.0594 | 0.149 | -0.0127 | 0.114 | 0.122
TCAAGAG | -0.0262 | 0.000129 | -0.567 | -0.576 | 0.0482 | -1.06 | 0.179 | 0.0372 | -0.0843 | -0.129
CAGAAGG | 0.131 | 0.277 | 0.158 | 0.628 | 0.125 | -0.397 | 0.175 | 0.194 | 0.0388 | 0.135
ACGCTTG | -0.0852 | -0.0347 | -0.453 | -0.664 | 0.0599 | -0.724 | 0.128 | 0.106 | 0.0949 | -0.101
AAGCGCC | 0.0397 | 0.148 | 0.15 | 0.245 | 0.0772 | 0.508 | 0.154 | -0.000571 | -0.0604 | 0.0667
ATATCTA | -0.189 | -0.109 | -0.22 | -1.44 | -0.0485 | -0.861 | -0.359 | -0.165 | 0.00685 | 0.0356
